Experimental data as given in the supplement of paper PMC8728848.
The other results are listed elsewhere or left out.

Legend:
Experiment in all cases: glycan array binding signal (z-score within array); higher = stronger binding
Conditions in all cases: glycan notation: IUPAC condensed, linker removed; mutation: R144S
[1] = target: Neu5Ac(a2-6)Gal(b1-4)GlcNAc(b1-2)Man(a1-3)Man(b1-4)GlcNAc(b1-4)GlcNAc
Procedure, shortened: (§1)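 Glycan array binding is given as a within-array Z-score, which can be read as non-binding when negative. The arrays, 3228 of them, came from the Consortium for Functional Glycomics database and were retained only where the protein sequence was available. Z-scores were averaged across arrays of the same protein sequence at different concentrations or buffers and across linkers.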

[2] = target: Neu5Ac(a2-6)Gal(b1-4)GlcNAc(b1-2)Man(a1-3)[Gal(b1-4)GlcNAc(b1-2)Man(a1-6)]Man(b1-4)GlcNAc(b1-4)GlcNAc
Procedure, shortened: as §1

[3] = target: Neu5Ac(a2-6)Gal(b1-4)GlcNAc(b1-2)Man(a1-3)[GlcNAc(b1-2)Man(a1-6)]Man(b1-4)GlcNAc(b1-4)GlcNAc
Procedure, shortened: as §1

[4] = target: Neu5Ac(a2-6)Gal(b1-4)GlcNAc(b1-2)Man(a1-3)[GlcNAc(b1-2)Man(b1-4)GlcNAc(b1-2)Man(a1-6)]Man(b1-4)GlcNAc(b1-4)GlcNAc
Procedure, shortened: as §1

[5] = target: Neu5Ac(a2-6)Gal(b1-4)GlcNAc(b1-2)Man(a1-3)[Man(a1-6)]Man(b1-4)GlcNAc(b1-4)GlcNAc
Procedure, shortened: as §1

[6] = target: Neu5Ac(a2-6)Gal(b1-4)GlcNAc(b1-2)Man(a1-3)[Neu5Ac(a2-6)Gal(b1-4)GlcNAc(b1-2)Man(a1-6)]Man(b1-4)GlcNAc(b1-4)GlcNAc
Procedure, shortened: as §1

[7] = target: Neu5Ac(a2-6)Gal(b1-4)GlcNAc(b1-2)Man(a1-6)Man(b1-4)GlcNAc(b1-4)GlcNAc
Procedure, shortened: as §1

[8] = target: Neu5Ac(a2-6)Gal(b1-4)GlcNAc(b1-2)Man(a1-6)[Gal(b1-4)GlcNAc(b1-2)Man(a1-3)]Man(b1-4)GlcNAc(b1-4)GlcNAc
Procedure, shortened: as §1

[9] = target: Neu5Ac(a2-6)Gal(b1-4)GlcNAc(b1-2)Man(a1-6)[GlcNAc(b1-2)Man(a1-3)]Man(b1-4)GlcNAc(b1-4)GlcNAc
Procedure, shortened: as §1

[10] = target: Neu5Ac(a2-6)Gal(b1-4)GlcNAc(b1-2)Man(a1-6)[Man(a1-3)]Man(b1-4)GlcNAc(b1-4)GlcNAc
Procedure, shortened: as §1

[11] = target: Neu5Ac(a2-6)Gal(b1-4)GlcNAc(b1-3)Gal(b1-3)GlcNAc
Procedure, shortened: as §1

[12] = target: Neu5Ac(a2-6)Gal(b1-4)GlcNAc(b1-3)Gal(b1-4)GlcNAc
Procedure, shortened: as §1

[13] = target: Neu5Ac(a2-6)Gal(b1-4)GlcNAc(b1-3)Gal(b1-4)GlcNAc(b1-3)Gal(b1-4)GlcNAc
Procedure, shortened: as §1

[14] = target: Neu5Ac(a2-6)Gal(b1-4)GlcNAc(b1-3)Gal(b1-4)[Fuc(a1-3)]GlcNAc(b1-3)Gal(b1-4)[Fuc(a1-3)]GlcNAc
Procedure, shortened: as §1

[15] = target: Neu5Ac(a2-6)Gal(b1-4)GlcNAc(b1-3)GalNAc
Procedure, shortened: as §1

[16] = target: Neu5Ac(a2-6)Gal(b1-4)GlcNAc6S
Procedure, shortened: as §1

Neu5Ac(a2-6)GalNAc = target: Neu5Ac(a2-6)GalNAc
Procedure, shortened: as §1

[17] = target: Neu5Ac(a2-6)GalNAc(b1-4)GlcNAc
Procedure, shortened: as §1

[18] = target: Neu5Ac(a2-6)GlcNAc(b1-4)GlcNAc
Procedure, shortened: as §1

[19] = target: Neu5Ac(a2-6)GlcNAc(b1-4)GlcNAc(b1-4)GlcNAc
Procedure, shortened: as §1

Neu5Ac(a2-8)Neu5Ac = target: Neu5Ac(a2-8)Neu5Ac
Procedure, shortened: as §1

[20] = target: Neu5Ac(a2-8)Neu5Ac(a2-3)Gal(b1-4)Glc
Procedure, shortened: as §1

[21] = target: Neu5Ac(a2-8)Neu5Ac(a2-3)[GalNAc(b1-4)]Gal(b1-4)Glc
Procedure, shortened: as §1

[22] = target: Neu5Ac(a2-8)Neu5Ac(a2-8)Neu5Ac
Procedure, shortened: as §1

[23] = target: Neu5Ac(a2-8)Neu5Ac(a2-8)Neu5Ac(a2-3)Gal(b1-4)Glc
Procedure, shortened: as §1

[24] = target: Neu5Ac(a2-8)Neu5Ac(a2-8)Neu5Ac(a2-3)[GalNAc(b1-4)]Gal(b1-4)Glc
Procedure, shortened: as §1

[25] = target: Neu5Ac(a2-8)Neu5Ac(a2-8)Neu5Ac(a2-8)Neu5Ac(a2-3)[GalNAc(b1-4)]Gal(b1-4)Glc
Procedure, shortened: as §1

[26] = target: Neu5Ac(b2-6)Gal(b1-4)GlcNAc
Procedure, shortened: as §1

Neu5Ac(b2-6)GalNAc = target: Neu5Ac(b2-6)GalNAc
Procedure, shortened: as §1

[27] = target: Neu5Ac9Ac(a2-3)Gal(b1-3)GlcNAc
Procedure, shortened: as §1

[28] = target: Neu5Ac9Ac(a2-3)Gal(b1-4)GlcNAc
Procedure, shortened: as §1

[29] = target: Neu5Ac9Ac(a2-6)Gal(b1-4)GlcNAc
Procedure, shortened: as §1

[30] = target: Neu5Gc(a2-3)Gal(b1-3)GlcNAc
Procedure, shortened: as §1

[31] = target: Neu5Gc(a2-3)Gal(b1-3)[Fuc(a1-4)]GlcNAc
Procedure, shortened: as §1

Neu5Gc(a2-3)Gal(b1-4)Glc = target: Neu5Gc(a2-3)Gal(b1-4)Glc
Procedure, shortened: as §1

[32] = target: Neu5Gc(a2-3)Gal(b1-4)GlcNAc
Procedure, shortened: as §1

[33] = target: Neu5Gc(a2-3)Gal(b1-4)[Fuc(a1-3)]GlcNAc
Procedure, shortened: as §1

[34] = target: Neu5Gc(a2-6)Gal(b1-4)GlcNAc
Procedure, shortened: as §1

Neu5Gc(a2-6)GalNAc = target: Neu5Gc(a2-6)GalNAc
Procedure, shortened: as §1

[35] = target: Neu5Gc(b2-6)Gal(b1-4)GlcNAc
Procedure, shortened: as §1

B1: Gal 3 (Homo sapiens), P17931 (protein)
chain: MADNFSLHDALSGSGNPNPQGWPGAWGNQPAGAGGYPGASYPGAYPGQAPPGAYPGQAPPGAYHGAPGAYPGAPAPGVYPGPPSGPGAYPSSGQPSAPGAYPATGPYGAPAGPLIVPYNLPLPGGVVPRMLITILGTVKPNANSILDFQRGNDVAFHFNPRFNENNRRVIVCNTKLDNNWGREERQSVFPFESGKPFKIQVLVEPDHFKVAVNDAHLLQYNHRVKKLNEISKLGISGDIDLTSASYTMI
For B1, the “glycan array binding signal (z-score)” value [1] was -0.363, the “glycan array binding signal (z-score)” value [2] was -0.061 and the “glycan array binding signal (z-score)” value [3] was -0.357. The “glycan array binding signal (z-score)” value [4] was -0.364, the “glycan array binding signal (z-score)” value [5] was -0.357 and the “glycan array binding signal (z-score)” value [6] was -0.309. The “glycan array binding signal (z-score)” value [7] was -0.358, the “glycan array binding signal (z-score)” value [8] was -0.34 and the “glycan array binding signal (z-score)” value [9] was -0.363. For the same binder, the “glycan array binding signal (z-score)” value [10] was -0.339, the “glycan array binding signal (z-score)” value [11] was -0.355 and the “glycan array binding signal (z-score)” value [12] was -0.355. For the same binder, the “glycan array binding signal (z-score)” value [13] was 0.657, the “glycan array binding signal (z-score)” value [14] was -0.365 and the “glycan array binding signal (z-score)” value [15] was -0.359. For the same binder, the “glycan array binding signal (z-score)” value [16] was -0.36, the “glycan array binding signal (z-score)” value (Neu5Ac(a2-6)GalNAc) was -0.364 and the “glycan array binding signal (z-score)” value [17] was -0.362. For the same binder, the “glycan array binding signal (z-score)” value [18] was -0.364, the “glycan array binding signal (z-score)” value [19] was -0.355 and the “glycan array binding signal (z-score)” value (Neu5Ac(a2-8)Neu5Ac) was -0.357. For the same binder, the “glycan array binding signal (z-score)” value [20] was -0.326, the “glycan array binding signal (z-score)” value [21] was -0.363 and the “glycan array binding signal (z-score)” value [22] was -0.355. For the same binder, the “glycan array binding signal (z-score)” value [23] was -0.344, the “glycan array binding signal (z-score)” value [24] was -0.358 and the “glycan array binding signal (z-score)” value [25] was -0.278. The “glycan array binding signal (z-score)” value [26] was -0.362, the “glycan array binding signal (z-score)” value (Neu5Ac(b2-6)GalNAc) was -0.363 and the “glycan array binding signal (z-score)” value [27] was -0.363. The “glycan array binding signal (z-score)” value [28] was -0.365, the “glycan array binding signal (z-score)” value [29] was -0.364 and the “glycan array binding signal (z-score)” value [30] was -0.363. The “glycan array binding signal (z-score)” value [31] was -0.357, the “glycan array binding signal (z-score)” value (Neu5Gc(a2-3)Gal(b1-4)Glc) was -0.35 and the “glycan array binding signal (z-score)” value [32] was -0.358. For the same binder, the “glycan array binding signal (z-score)” value [33] was -0.362, the “glycan array binding signal (z-score)” value [34] was -0.362 and the “glycan array binding signal (z-score)” value (Neu5Gc(a2-6)GalNAc) was -0.361. The “glycan array binding signal (z-score)” value [35] was -0.358.
